# Laboratory results taken from the supplement of paper PMC5919970.
# Where a name gives a salt, the structure may show the parent alone. Whole data set: some 2,000 compounds, median “fractional viability relative to vehicle” near 0.91, cut for the lowest 2% near 0.045. The list shows a part of the results.
# System: TYKNU
# Assay: fractional viability relative to vehicle; TYKNU is a high-grade serous ovarian cancer line; higher = less growth inhibition
# Conditions: 72 h
# How it was run: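 TYKNU control cells or lentiCRISPRv2 knockout derivatives were plated at 500 cells per well in duplicate into drug-stamped 384-well plates holding a ~2100-compound library at 2 or 10 μM. Culture was in RPMI 1640 with 10% FBS at 37 °C in 5% CO2, with 72 h of drug treatment. Viability was measured by Cell Titer Glo luminescence, and the averaged duplicate treatment wells were normalised to duplicate control wells at the same plate position.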
# [1] = 2uM, genotype: DNM1L knockout (sgDNM1L #1)
# [2] = 2uM, genotype: sgCTRLA1 (non-targeting control)
# [3] = 10uM, genotype: DNM1L knockout (sgDNM1L #1)
# [4] = 10uM, genotype: sgCTRLA1 (non-targeting control)
Compound,fractional viability [1],fractional viability [2],fractional viability [3],fractional viability [4]
CCN(C(=O)c1c(O)c2c(Cl)cccc2n(C)c1=O)c1ccccc1 [Laquinimod],1.22,1.14,0.958,1.08
CCc1nc(N)nc(N)c1-c1ccc(Cl)cc1 [Pyrimethamine],0.792,0.997,0.634,0.546
Cc1c(C(=O)NN2CCCCC2)nn(-c2ccc(Cl)cc2Cl)c1-c1ccc(I)cc1,0.975,1.02,0.522,0.82
CC(C)NCC(O)COc1ccc(CCOCC2CC2)cc1 (centres undefined) [Betaxolol],1.07,1.01,0.827,0.976
CCOc1nc2cccc(C(=O)OCc3oc(=O)oc3C)c2n1Cc1ccc(-c2ccccc2-c2noc(=O)[nH]2)cc1 [Azilsartan Medoxomil],1.07,1.05,1.05,1.03
COc1cc(OC2CCN(C)CC2)ccc1Nc1ncc2c(n1)n(C1CCCC1)c(=O)n2C,0.688,0.769,0.337,0.315
C#CCN[C@@H]1CCc2ccccc21 [Rasagiline Mesylate],0.932,0.962,0.851,1.05
COc1ccc(NS(=O)(=O)c2sc3ccc(Cl)cc3c2C)cc1N1CCNCC1,0.975,1.08,0.55,0.896
CC(C)n1nc(-c2ccc3oc(N)nc3c2)c2c(N)ncnc21,0.194,0.191,0.181,0.171
O=C(O)c1cc(C(F)(F)F)ccc1N1CC[C@H](OCc2ccccn2)C1,0.659,0.901,0.646,0.674
N[C@@H](Cc1c[nH]c2ccc(O)cc12)C(=O)O [5-hydroxytryptophan (5-HTP)],0.799,1.16,0.804,1.09
CC(=O)Nc1nc2c(Oc3cc(-c4ccc(C(F)(F)F)cc4)ncn3)cccc2s1,0.954,1.19,0.867,1.13
O=C(NO)c1cccc(C(=O)NCCc2ccccc2)c1,0.794,0.895,0.81,0.767
N=C(N)Nc1ccc(C(=O)Oc2ccc3cc(C(=N)N)ccc3c2)cc1 [Nafamostat Mesylate],1.06,0.979,0.95,0.821
NC(=O)c1nc(F)cnc1O [Favipiravir (T-705)],0.808,1.02,0.766,0.755
CCCCc1nc2cc(/C=C/C(=O)NO)ccc2n1CCN(CC)CC [Pracinostat (SB939)],0.146,0.22,0.0823,0.0879
